12 sequences from the supplement of paper PMC12230231 can be followed below.

± gives the standard deviation of the averaged measurements. Restriction of a single-cycle SIVsab GFP reporter by TRIM5α v1-loop variants in CRFK cells. Human variants: read share among cells still uninfected after two challenges over input, higher = gained restriction. Rhesus variants: share among infected cells over input, higher = lost restriction. Reporter dose not given per row. No active / inactive call per row; the paper calls a change when both replicates lie above its controls (mean + 2 SD of stop or wild-type variants, or the top frameshift score). Residues outside the varied loop are taken from Swiss-Prot. The paper reads the human single-substitution scores as noise; they and the rhesus combinations repeat poorly (rank correlation 0.3 to 0.4), indel scores repeat only for the top variants, rhesus substitutions well (0.9).

For this data set, the system named is SIVsab (simian immunodeficiency virus of sabaeus monkeys), single-cycle GFP reporter, in CRFK cells. Briefly: enrichment among uninfected cells over input (fold); higher = stronger restriction. Particulars: library: human / rhesus combinations. How it is done: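 Pools of CRFK cells expressing variants of the TRIM5α v1 loop were challenged with the single-cycle reporter, sorted by GFP and sequenced; mean of two replicates.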
With “MASGILVNVKEEVTCPICLELLTQPLSLDCGHSFCQACLTANHKKSMLDKGESSCPVCRISYQPENIRPNRHVANIVEKLREVKLSPEGQKVDHCARHGEKLLLFCQEDGKVICWLCERSQEHRGHHTFLTEEVAREYQVKLQAALEMLRQKQQEAEELEADIREEKASWKTQIQYDKTNVLADFEQLRDILDWEESNELQNLEKEEEDILKSLTNSETEMVQQTQSLRELISDLEHRLQGSVMELLQGVDGVIKRTENVTLKKPETFPKNQRRVFRAPDLKGMLEVFRELTDVRRYWVDVTVAPNNISCAVISEDKRQVSSPKPQIIYQARGTRFTFQTLVNFNYCTGILGSQSITSGKHYWEVDVSKKTAWILGVCAGFQPDAMCNIEKNENYQPKYGYWVIGLEEGVKCSAFQDSSFHTPSVPFIVPLSVIICPDRVGVFLDYEACTVSFFNITNHGFLIYKFSHCSFSQPVFPYLNPRKCGVPMTLCSPSS [human TRIM5α, 330-340 = QARGTRFTFQTLV]”, the enrichment is 0.123 ± 0.088.
Under “MASGILVNVKEEVTCPICLELLTQPLSLDCGHSFCQACLTANHKKSMLDKGESSCPVCRISYQPENIRPNRHVANIVEKLREVKLSPEGQKVDHCARHGEKLLLFCQEDGKVICWLCERSQEHRGHHTFLTEEVAREYQVKLQAALEMLRQKQQEAEELEADIREEKASWKTQIQYDKTNVLADFEQLRDILDWEESNELQNLEKEEEDILKSLTNSETEMVQQTQSLRELISDLEHRLQGSVMELLQGVDGVIKRTENVTLKKPETFPKNQRRVFRAPDLKGMLEVFRELTDVRRYWVDVTVAPNNISCAVISEDKRQVSSPKPQIIYQARGTRYPSFVNFNYCTGILGSQSITSGKHYWEVDVSKKTAWILGVCAGFQPDAMCNIEKNENYQPKYGYWVIGLEEGVKCSAFQDSSFHTPSVPFIVPLSVIICPDRVGVFLDYEACTVSFFNITNHGFLIYKFSHCSFSQPVFPYLNPRKCGVPMTLCSPSS [human TRIM5α, 330-340 = QARGTRYPSFV]” stands 0.0601 ± 0.084.
Regarding “MASGILVNVKEEVTCPICLELLTQPLSLDCGHSFCQACLTANHKKSMLDKGESSCPVCRISYQPENIRPNRHVANIVEKLREVKLSPEGQKVDHCARHGEKLLLFCQEDGKVICWLCERSQEHRGHHTFLTEEVAREYQVKLQAALEMLRQKQQEAEELEADIREEKASWKTQIQYDKTNVLADFEQLRDILDWEESNELQNLEKEEEDILKSLTNSETEMVQQTQSLRELISDLEHRLQGSVMELLQGVDGVIKRTENVTLKKPETFPKNQRRVFRAPDLKGMLEVFRELTDVRRYWVDVTVAPNNISCAVISEDKRQVSSPKPQIIYQARGTRYPSLVNFNYCTGILGSQSITSGKHYWEVDVSKKTAWILGVCAGFQPDAMCNIEKNENYQPKYGYWVIGLEEGVKCSAFQDSSFHTPSVPFIVPLSVIICPDRVGVFLDYEACTVSFFNITNHGFLIYKFSHCSFSQPVFPYLNPRKCGVPMTLCSPSS [human TRIM5α, 330-340 = QARGTRYPSLV]”, the enrichment is 0.2309 ± 0.0016.
As to “MASGILVNVKEEVTCPICLELLTQPLSLDCGHSFCQACLTANHKKSMLDKGESSCPVCRISYQPENIRPNRHVANIVEKLREVKLSPEGQKVDHCARHGEKLLLFCQEDGKVICWLCERSQEHRGHHTFLTEEVAREYQVKLQAALEMLRQKQQEAEELEADIREEKASWKTQIQYDKTNVLADFEQLRDILDWEESNELQNLEKEEEDILKSLTNSETEMVQQTQSLRELISDLEHRLQGSVMELLQGVDGVIKRTENVTLKKPETFPKNQRRVFRAPDLKGMLEVFRELTDVRRYWVDVTVAPNNISCAVISEDKRQVSSPKPQIIYQARGTRYPTLVNFNYCTGILGSQSITSGKHYWEVDVSKKTAWILGVCAGFQPDAMCNIEKNENYQPKYGYWVIGLEEGVKCSAFQDSSFHTPSVPFIVPLSVIICPDRVGVFLDYEACTVSFFNITNHGFLIYKFSHCSFSQPVFPYLNPRKCGVPMTLCSPSS [human TRIM5α, 330-340 = QARGTRYPTLV]”, the enrichment came out at 0.00101 ± 3.2e-05.
Consider “MASGILVNVKEEVTCPICLELLTQPLSLDCGHSFCQACLTANHKKSMLDKGESSCPVCRISYQPENIRPNRHVANIVEKLREVKLSPEGQKVDHCARHGEKLLLFCQEDGKVICWLCERSQEHRGHHTFLTEEVAREYQVKLQAALEMLRQKQQEAEELEADIREEKASWKTQIQYDKTNVLADFEQLRDILDWEESNELQNLEKEEEDILKSLTNSETEMVQQTQSLRELISDLEHRLQGSVMELLQGVDGVIKRTENVTLKKPETFPKNQRRVFRAPDLKGMLEVFRELTDVRRYWVDVTVAPNNISCAVISEDKRQVSSPKPQIIYQARGTRYQSLVNFNYCTGILGSQSITSGKHYWEVDVSKKTAWILGVCAGFQPDAMCNIEKNENYQPKYGYWVIGLEEGVKCSAFQDSSFHTPSVPFIVPLSVIICPDRVGVFLDYEACTVSFFNITNHGFLIYKFSHCSFSQPVFPYLNPRKCGVPMTLCSPSS [human TRIM5α, 330-340 = QARGTRYQSLV]”, for which the enrichment is 0.00542 ± 0.0061.
“MASGILVNVKEEVTCPICLELLTQPLSLDCGHSFCQACLTANHKKSMLDKGESSCPVCRISYQPENIRPNRHVANIVEKLREVKLSPEGQKVDHCARHGEKLLLFCQEDGKVICWLCERSQEHRGHHTFLTEEVAREYQVKLQAALEMLRQKQQEAEELEADIREEKASWKTQIQYDKTNVLADFEQLRDILDWEESNELQNLEKEEEDILKSLTNSETEMVQQTQSLRELISDLEHRLQGSVMELLQGVDGVIKRTENVTLKKPETFPKNQRRVFRAPDLKGMLEVFRELTDVRRYWVDVTVAPNNISCAVISEDKRQVSSPKPQIIYQARGTRYTFPSFTNFNYCTGILGSQSITSGKHYWEVDVSKKTAWILGVCAGFQPDAMCNIEKNENYQPKYGYWVIGLEEGVKCSAFQDSSFHTPSVPFIVPLSVIICPDRVGVFLDYEACTVSFFNITNHGFLIYKFSHCSFSQPVFPYLNPRKCGVPMTLCSPSS [human TRIM5α, 330-340 = QARGTRYTFPSFT]”: the enrichment was 0.258 ± 0.069.
Under “MASGILVNVKEEVTCPICLELLTQPLSLDCGHSFCQACLTANHKKSMLDKGESSCPVCRISYQPENIRPNRHVANIVEKLREVKLSPEGQKVDHCARHGEKLLLFCQEDGKVICWLCERSQEHRGHHTFLTEEVAREYQVKLQAALEMLRQKQQEAEELEADIREEKASWKTQIQYDKTNVLADFEQLRDILDWEESNELQNLEKEEEDILKSLTNSETEMVQQTQSLRELISDLEHRLQGSVMELLQGVDGVIKRTENVTLKKPETFPKNQRRVFRAPDLKGMLEVFRELTDVRRYWVDVTVAPNNISCAVISEDKRQVSSPKPQIIYQARGTRYTFPSFVNFNYCTGILGSQSITSGKHYWEVDVSKKTAWILGVCAGFQPDAMCNIEKNENYQPKYGYWVIGLEEGVKCSAFQDSSFHTPSVPFIVPLSVIICPDRVGVFLDYEACTVSFFNITNHGFLIYKFSHCSFSQPVFPYLNPRKCGVPMTLCSPSS [human TRIM5α, 330-340 = QARGTRYTFPSFV]” stands 0.129 ± 0.07; under “MASGILVNVKEEVTCPICLELLTQPLSLDCGHSFCQACLTANHKKSMLDKGESSCPVCRISYQPENIRPNRHVANIVEKLREVKLSPEGQKVDHCARHGEKLLLFCQEDGKVICWLCERSQEHRGHHTFLTEEVAREYQVKLQAALEMLRQKQQEAEELEADIREEKASWKTQIQYDKTNVLADFEQLRDILDWEESNELQNLEKEEEDILKSLTNSETEMVQQTQSLRELISDLEHRLQGSVMELLQGVDGVIKRTENVTLKKPETFPKNQRRVFRAPDLKGMLEVFRELTDVRRYWVDVTVAPNNISCAVISEDKRQVSSPKPQIIYQARGTRYTFPSLTNFNYCTGILGSQSITSGKHYWEVDVSKKTAWILGVCAGFQPDAMCNIEKNENYQPKYGYWVIGLEEGVKCSAFQDSSFHTPSVPFIVPLSVIICPDRVGVFLDYEACTVSFFNITNHGFLIYKFSHCSFSQPVFPYLNPRKCGVPMTLCSPSS [human TRIM5α, 330-340 = QARGTRYTFPSLT]”, 0.251 ± 0.004; under “MASGILVNVKEEVTCPICLELLTQPLSLDCGHSFCQACLTANHKKSMLDKGESSCPVCRISYQPENIRPNRHVANIVEKLREVKLSPEGQKVDHCARHGEKLLLFCQEDGKVICWLCERSQEHRGHHTFLTEEVAREYQVKLQAALEMLRQKQQEAEELEADIREEKASWKTQIQYDKTNVLADFEQLRDILDWEESNELQNLEKEEEDILKSLTNSETEMVQQTQSLRELISDLEHRLQGSVMELLQGVDGVIKRTENVTLKKPETFPKNQRRVFRAPDLKGMLEVFRELTDVRRYWVDVTVAPNNISCAVISEDKRQVSSPKPQIIYQARGTRYTFPSLVNFNYCTGILGSQSITSGKHYWEVDVSKKTAWILGVCAGFQPDAMCNIEKNENYQPKYGYWVIGLEEGVKCSAFQDSSFHTPSVPFIVPLSVIICPDRVGVFLDYEACTVSFFNITNHGFLIYKFSHCSFSQPVFPYLNPRKCGVPMTLCSPSS [human TRIM5α, 330-340 = QARGTRYTFPSLV]”, 0.324 ± 0.18.
Under “MASGILVNVKEEVTCPICLELLTQPLSLDCGHSFCQACLTANHKKSMLDKGESSCPVCRISYQPENIRPNRHVANIVEKLREVKLSPEGQKVDHCARHGEKLLLFCQEDGKVICWLCERSQEHRGHHTFLTEEVAREYQVKLQAALEMLRQKQQEAEELEADIREEKASWKTQIQYDKTNVLADFEQLRDILDWEESNELQNLEKEEEDILKSLTNSETEMVQQTQSLRELISDLEHRLQGSVMELLQGVDGVIKRTENVTLKKPETFPKNQRRVFRAPDLKGMLEVFRELTDVRRYWVDVTVAPNNISCAVISEDKRQVSSPKPQIIYQARGTRYTFPTFTNFNYCTGILGSQSITSGKHYWEVDVSKKTAWILGVCAGFQPDAMCNIEKNENYQPKYGYWVIGLEEGVKCSAFQDSSFHTPSVPFIVPLSVIICPDRVGVFLDYEACTVSFFNITNHGFLIYKFSHCSFSQPVFPYLNPRKCGVPMTLCSPSS [human TRIM5α, 330-340 = QARGTRYTFPTFT]” stands 0.0468 ± 0.065.
Consider “MASGILVNVKEEVTCPICLELLTQPLSLDCGHSFCQACLTANHKKSMLDKGESSCPVCRISYQPENIRPNRHVANIVEKLREVKLSPEGQKVDHCARHGEKLLLFCQEDGKVICWLCERSQEHRGHHTFLTEEVAREYQVKLQAALEMLRQKQQEAEELEADIREEKASWKTQIQYDKTNVLADFEQLRDILDWEESNELQNLEKEEEDILKSLTNSETEMVQQTQSLRELISDLEHRLQGSVMELLQGVDGVIKRTENVTLKKPETFPKNQRRVFRAPDLKGMLEVFRELTDVRRYWVDVTVAPNNISCAVISEDKRQVSSPKPQIIYQARGTRYTFPTFVNFNYCTGILGSQSITSGKHYWEVDVSKKTAWILGVCAGFQPDAMCNIEKNENYQPKYGYWVIGLEEGVKCSAFQDSSFHTPSVPFIVPLSVIICPDRVGVFLDYEACTVSFFNITNHGFLIYKFSHCSFSQPVFPYLNPRKCGVPMTLCSPSS [human TRIM5α, 330-340 = QARGTRYTFPTFV]”, for which the enrichment was determined as 0.164 ± 0.082.
Under “MASGILVNVKEEVTCPICLELLTQPLSLDCGHSFCQACLTANHKKSMLDKGESSCPVCRISYQPENIRPNRHVANIVEKLREVKLSPEGQKVDHCARHGEKLLLFCQEDGKVICWLCERSQEHRGHHTFLTEEVAREYQVKLQAALEMLRQKQQEAEELEADIREEKASWKTQIQYDKTNVLADFEQLRDILDWEESNELQNLEKEEEDILKSLTNSETEMVQQTQSLRELISDLEHRLQGSVMELLQGVDGVIKRTENVTLKKPETFPKNQRRVFRAPDLKGMLEVFRELTDVRRYWVDVTVAPNNISCAVISEDKRQVSSPKPQIIYQARGTRYTFPTLTNFNYCTGILGSQSITSGKHYWEVDVSKKTAWILGVCAGFQPDAMCNIEKNENYQPKYGYWVIGLEEGVKCSAFQDSSFHTPSVPFIVPLSVIICPDRVGVFLDYEACTVSFFNITNHGFLIYKFSHCSFSQPVFPYLNPRKCGVPMTLCSPSS [human TRIM5α, 330-340 = QARGTRYTFPTLT]” stands 0.387 ± 0.36.
